According to publication PMC4336329 (PLoS ONE, 2015):
Among all 310,000 compounds or so, about 14,000 (4.5%) showed an effect of 50% or more. The effect is printed as a negative number. The list shows a part of the results.

The compounds below were run against human ether-à-go-go-related gene (hERG) potassium channel (human, UniProt Q12809) (assay: primary screen, population patch clamp on CHO cells stably expressing hERG).
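Note: peak tail current of the secondary pulse compared with the same well before compound.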

Chain of human ether-à-go-go-related gene (hERG) potassium channel (Q12809 whole entry, looked up): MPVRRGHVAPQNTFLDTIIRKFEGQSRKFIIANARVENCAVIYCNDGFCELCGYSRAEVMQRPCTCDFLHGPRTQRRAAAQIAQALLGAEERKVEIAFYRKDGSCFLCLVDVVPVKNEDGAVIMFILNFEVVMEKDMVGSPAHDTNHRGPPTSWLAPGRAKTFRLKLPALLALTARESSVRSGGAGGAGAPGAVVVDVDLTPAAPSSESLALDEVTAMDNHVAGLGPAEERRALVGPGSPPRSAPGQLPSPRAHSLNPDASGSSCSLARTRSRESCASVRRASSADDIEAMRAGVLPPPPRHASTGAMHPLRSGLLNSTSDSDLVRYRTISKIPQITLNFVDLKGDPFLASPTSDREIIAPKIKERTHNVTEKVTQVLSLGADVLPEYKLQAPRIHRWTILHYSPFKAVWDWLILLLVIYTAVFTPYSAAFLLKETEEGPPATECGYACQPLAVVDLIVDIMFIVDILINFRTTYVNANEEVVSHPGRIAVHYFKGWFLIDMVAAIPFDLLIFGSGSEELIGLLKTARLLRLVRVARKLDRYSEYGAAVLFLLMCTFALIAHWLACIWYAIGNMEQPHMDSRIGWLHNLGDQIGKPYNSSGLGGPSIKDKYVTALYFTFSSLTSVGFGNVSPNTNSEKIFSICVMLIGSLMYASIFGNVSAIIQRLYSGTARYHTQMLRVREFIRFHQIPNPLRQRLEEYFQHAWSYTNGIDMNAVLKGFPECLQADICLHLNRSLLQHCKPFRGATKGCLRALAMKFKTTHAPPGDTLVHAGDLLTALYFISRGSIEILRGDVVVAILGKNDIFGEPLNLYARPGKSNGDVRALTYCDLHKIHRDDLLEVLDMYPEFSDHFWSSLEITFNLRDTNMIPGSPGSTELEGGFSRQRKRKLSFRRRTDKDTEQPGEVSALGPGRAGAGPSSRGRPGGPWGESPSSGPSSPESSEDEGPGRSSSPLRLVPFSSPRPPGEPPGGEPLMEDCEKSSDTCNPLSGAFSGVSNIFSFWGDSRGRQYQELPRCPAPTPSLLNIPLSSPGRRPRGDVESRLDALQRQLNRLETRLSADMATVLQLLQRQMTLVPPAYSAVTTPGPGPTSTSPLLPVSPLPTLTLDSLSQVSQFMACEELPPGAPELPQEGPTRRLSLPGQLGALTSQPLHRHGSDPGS

Row | SMILES | hERG current change (%, negative = inhibition) at 10uM [%]
1 | CC1(C)CC(=O)C/C(=N/NC(=O)CCCOc2ccc(Cl)cc2Cl)C1 | -22.8
2 | Cc1cc(NC(=O)CSCC(=O)N2CCN(c3cccc(C(F)(F)F)c3)CC2)no1 | -11.3
3 | Cc1cc(=O)oc2cc(NC(=O)c3cc4ccccc4o3)ccc12 | -0.75
4 | COCCNC(=O)/C(C#N)=C/c1c(F)cccc1Cl | 31.1
5 | Cc1sc(N/N=C/C=C/c2ccccc2)nc1-c1ccccc1 | 8.54
6 | CCc1ccc2[nH]c3nc(SCCN4CCOCC4)nnc3c2c1 | 4.48
7 | CCN(CC)c1ccc(N2C(=O)/C(=C\c3cccnc3)SC2=S)cc1 | 8.51
8 | CCOc1ccccc1C1C2CCCCC2(O)CCN1C(=O)c1cccs1 (centres unmarked) | -15.5
9 | Cn1c(C(=O)N2CCN(Cc3ccccc3)CC2)cc2c(=O)n(C)c3ccccc3c21 | -15.8
10 | CN(CC1CCCO1)S(=O)(=O)c1ccc(C(=O)Nc2ccc3c(c2)OCO3)cc1 (centres unmarked) | -5.12
11 | CCOC(=O)c1sc2nc[nH]c(=O)c2c1C | 9.87
12 | Cc1nc2nc(-c3ccccc3)cc(=O)n2[nH]1 | 11.8
13 | O=C(Nc1cccc(NC(=O)c2ccc(Br)cc2)c1)c1ccccc1 | 18
14 | O=C(CO/N=C/c1ccc(OC(F)F)cc1)NC1CCCC1 | -49
15 | CN(Cc1c(F)cccc1Cl)c1nnnn1-c1ccccc1 | -1.81
16 | Oc1ccccc1/C=N/n1c2ccccc2c2ccccc21 | 7.15
17 | Cc1ccccc1-c1nnc(CN2CCN(C(=O)c3ccco3)CC2)o1 | -14.2
18 | COc1ccc(Br)cc1/C=N/NC(=O)CN1CCN(Cc2ccccc2)CC1 | -33.1
19 | Cc1cc(C)c(N)cc1C | 14.6
20 | COc1ccccc1N1CCN(C2CCCN(C(=O)CCC(C)=O)C2)CC1 (centres unmarked) | 14.9
21 | COc1ccc([C@H]2CC(=O)C=C(c3ccc(O)cc3)C2)cc1OC | -2.35
22 | Cl.NS(=O)(=O)c1ccc(CCNCc2ccccc2OCc2ccc(F)cc2)cc1 | -74.5
23 | O=C(Nc1ccc2c(c1)CN(Cc1ccccc1O)CC2)C1CCCO1 (centres unmarked) | -0.472
24 | O=C(CN1C(=O)c2cccc([N+](=O)[O-])c2C1=O)OCC(=O)N1CCCCC1 | 1.09
25 | Cc1ccc2c(NC(=O)c3ccco3)cccc2n1 | 0.511
26 | Cc1[nH]c(=O)[nH]c(=O)c1Cc1cccc2ccccc12 | 15.2
27 | COc1cccc(-c2cc3nc(-c4ccccc4)cc(N4CCCC(O)C4)n3n2)c1 (centres unmarked) | 10.6

Row | SMILES | hERG current change (%, negative = inhibition) at 10uM [%]
28 | COc1cccc2c1C(=O)c1c(O)c3c(c(O)c1C2=O)C[C@@](O)(C(=O)CO)C[C@@H]3O[C@H]1C[C@H](N)[C@@H](O)[C@H](C)O1.Cl | 20.5
29 | COc1ccc(Cl)cc1NS(=O)(=O)c1cccc(C(=O)NCC(c2ccco2)N(C)C)c1 (centres unmarked) | -2.01
30 | COC(=O)C1=C(c2c(C)noc2C)C[C@@H]2CC[C@H]1N2C(=O)N1CCC(O)(c2ccc(Cl)cc2)CC1 | -35.8
31 | Cc1nc2ccc(NC(=O)N(C(C)C)C(C)C)cc2s1 | -1.31
32 | CCN(C(=O)Cc1ccc(Br)cc1)C1CCCCC1 | -15.3
33 | Cc1n[nH]c(C)c1-c1nc2ccccc2[nH]1 | 0.975
34 | CCn1nc(C(=O)NNC(=O)c2cc(Cl)ccc2OC)c2ccccc2c1=O | -17.5
35 | Cc1cccc(NC(=O)CN2CCC(NC(=O)C3CCCCC3)CC2)c1C | 0.0433
36 | O=C(Nc1cccc(F)c1)c1cc(S(=O)(=O)N2CCOCC2)cs1 | -18
37 | CC1=C(C(=O)OCC(C)C)C(c2cccc(F)c2)N2C(=O)C(C)SC2=N1 (centres unmarked) | 4.25
38 | CC(C)Oc1cccc(C(=O)C2CCCN(Cc3cnc(N4CCCC4)s3)C2)c1 (centres unmarked) | -47.1
39 | CCOc1cc(NS(=O)(=O)c2ccc(NC(C)=O)cc2)c(OCC)cc1NC(=O)C(C)C | 10.3
40 | O=C1NC(SCCCF)=N/C1=C/c1ccc(-n2cncn2)cc1 | -4.47
41 | C#CCOCCOCCOCCNc1nc(N2CCN(C(=O)C([C@@H](C)CC)n3cc(C(N)CO)nn3)CC2)nc(N2CCN(C(=O)[C@H](CCC(=O)O)n3cc(C(N)CC(C)C)nn3)CC2)n1.Cl (some centres unmarked) | 3.33
42 | Cc1ccc(CSc2nnc(CCNC(=O)OC(C)(C)C)o2)cc1 | 6.81
43 | O=C(O)CC(NC(=O)Nc1ccccc1)c1ccc(OC2CCCC2)cc1 (centres unmarked) | 26.6
44 | Cc1ccc(S(=O)(=O)N2CCCC2c2nc3ccccc3s2)cc1 (centres unmarked) | 3.62
45 | COc1ccccc1-c1nc(-c2ccccc2)nc(N2CCN(C)CC2)c1C#N | -16.3
46 | Cc1ccc(C(C(=O)NCC2CCCO2)N(C(=O)c2snc(C(N)=O)c2N)c2ccc(C(C)C)cc2)o1 (centres unmarked) | 1.13
47 | CCc1ccc(Nc2nc(C)cc(C)c2C(N)=O)cc1 | 4.67
48 | Cc1ccccc1Cn1cnc2c(nnn2Cc2ccc(F)cc2)c1=O | -1.9
49 | O=C([O-])c1ccccc1-c1c2cc(I)c(=O)c(I)c-2oc2c(I)c([O-])c(I)cc12.[Na+] | 4.08
50 | Clc1ccc(C2=Nn3c(nnc3-c3cccs3)SC2)cc1 | -4.8
51 | CCCCC1=CC2=C(c3ccco3)C(=O)C(C)(OC(=O)c3ccc(OC)cc3)C(=O)C2=CN1C1CCCCC1 (centres unmarked) | -1.39
52 | O=C(Nc1ccc(NC(=O)c2cccs2)cc1)c1ccc(Br)o1 | 5.47
53 | CCCN(CC(=O)Nc1ccc(F)c(F)c1F)C(=O)Cn1c(=O)cnc2ccccc21 | -25.2
